In the RNAGym collection of RNA variant scans (doi:10.7554/elife.90254) one finds self-cleavage data, which are given here for 39 variants.

B1: LINE1-full (parent)
chain: UACGUAGGUGGUUUUCCCCUGAUAGUGCUAAGGGGGCCUGGAAGUUUGGACUGGGCAGAGCUCAACACAGCGUGGCAAAGUGGCUGUGGCUAGACUGCCUCUCUGGAUUCCUCGUCACUCAGCAGGGCAUCUCUGAGAGAAAUGCC

The source gives no read counts; variants with many changes may rest on few reads.

In this data set the parent is B1. Nature of the data set: self-cleavage, relative activity (ratio to wild type); higher = more cleavage; in vitro, sequencing; the parent is a self-cleaving ribozyme.
On to UACGUAGGUGGUUUUCCCCUGAUAGUGCUAAGGGGGCCUGGAAGUAUGGACUGGGCAGAGCUCAACACAGCGUGGCAAAGUGGCUGUGGCUAGACUGCCUCUCAGGAUUCCUCGUCACUCAGCAGGGCAUCUCUGAGAGAGGUGCC, for which the self-cleavage worked out at 1.49.
As to UACGUAGGUGGUUUUCCCCGGAUAGUGCUAAGGGGGCCUGGAAGUUUGGACUGGGCAUAGCUCAACACAGCGUGGCAAAGUGGCUGGGGCUAGACUGCCUCUCUGGAUCCCUCGUCACUCAGCAGGGCAUCUCUGAGAGAAAUGCC, the self-cleavage came out at 0.
Regarding UACGUAGGUGGUUUUCCCCUGAUAGUGCUAAGGGGGCCUGGAGGUUUGGACUGGGCAGAGCUCAACACAGCGGGGCAAGGUGGCUGUGGCUAGACUGCCUCUCUGGAUUCCUCGUCACUCAGCAGGGCAUCUCUGAGAGAAAUGCC, the self-cleavage is 1.84.
In the case of UACGUAGGUGGUUUUCCCCUGAUAGUGCUAAGGGGGCCUGGAAGUUUGGACUGGGCAGAGCUCAACACAGCGUGGCAAAGUGGCUGUGGCUGGACUGCCACUCUGGAUUCCUCGUCACUCAGCAGGGCAUCUCUGCGGGAAAUGCC, the self-cleavage was found to be 0.
Consider CACGUAGGUGGUUUUCCCCUGAUAGUGCUAAGGGGGCCUGGAAGGUUGGACUGGGCAGAGCUCAACACAGCGUGGCAAAGUGGCUGUGGCUAGACUGCCUCUCUGGAUUCCUCGUCACUCAGCAGGGCAUCUCUGAGAGAGAUGCC, for which the self-cleavage is 2.03.
As to UACGUAGGUGGUUUUCCCCUGAUAGUGCUAAGGGGGCCUGGAAGUUUGGACUGGGCGGAGCUCAACACAGCGUGGCAAAGUGGCUGUGGCUAGACUGCCUCUCUGGAUUCCUCGUCACUCAGCAGGACAUCUCUGAGGGAAAUGCC, the self-cleavage stood at 1.16.
With UACGUAGGUGGUUUUCCCCUGACAGUGCUAAGGGGGCCUGGAAGUUUGGACUGGGCAGAGCUCAACACAGCGUGGCAAAGUGGCUGUGGCUAGACAGCCUCUCUGGAUUCCUCGUCACUCCGCAGGGCAUCUCUGAGAGAAAUGCC, the self-cleavage was 0.
As for UACGUAGGUGGUUUCCCCCUGAUAGUGCAAAGGGGGCCUGGGAGUUUGGACUGGGCAGAGCCCAACACAGCGUGGCAAAGUGGCUGUGGCUUGACUGCCUCUCUGGAUACCUCGUCACUCAGCAGGGCAUCUCUGAGAGGAAUGCC, the self-cleavage came to 0.
Take UACGUAGGUGGUUUUCCCCUGAUAGCGCUAAGGGGGCCUGGAAGUUUGGACUGGGCAGAGCUCAACACAGCGUGGCAAAGUGGCUGUGGCUAGAUUGCCUCUCUGGAUUCCUCGUCACUCAGCAGGGCAUCUCCGAGAGAAAUGCC: the self-cleavage was 0.33.
In the case of UACGUAGGUGGUUUUCCCCUGAUAGUGCUAAGGGGGCCUGGAAGUUUGGACUGGGCAGAGCUCAACACAGCGUGGCAAAGUGGCUGUGGCUAGACUGCCUCUCUGGAUUCCUUGUCACUCAGCAGGGCAUCCCUGAGAGGAAUGCC, the self-cleavage came out at 0.17.
As for UACGUAGGUGGUUUUCCCCUGAUAGUGCUAAGGGGGCCUGGAAGUUUGGACUGGGCAGAGCUCAACACAGCGUGGCAAAGUGGCUGUGGCUAGGCUGCCUCUCUGGAUUCCUCGUCACUCAGCAGGGCAUCCCUGAGGGAAAUGCC, the self-cleavage was 0.3.
On to UACGUAGGUGGUUUACCCCUGAUAGUGCUAAGGGGGCCUGGAAGUUUGGACUGGGCAGAGCUCAACACAGCGUGGCAAAGAGGCUGUGGCUAGACUGCCUCACUGGAUUCCUCGUCACUCAGCAGGGCAUCUCUGAGAGAAAUGCC, for which the self-cleavage came out at 1.46.
The same measure for UACGUAGGUGGUUUUCCCCUGAUAGUGCUAGGGGGGCCUGGAAGUAUGGACUGGGCAGAGCUCAACACAGCGUGGCAAAGUGGCUGUGGCUAGACUGCCUCUCUGGAUUCCUCGUCACUCAGCAGGGCAUCUCUGAGAGAAAUGCU: 0.48; for UACGUUGGAGGUUUUCCCCUGAUAGUGCUAAGGGGGCCUGGAAGUUUGGACUGGGCAGAGCUCAACACAGCGUGGCAAUGAGGCUGUGGCUAGACUGCCUCUCUGGAUUCCUCGUCACACAGCAGGGCAUCUCUGAGAGAGAUGCC: 2.08.
With UACGUAGGUGGUUUUCCCCUGAUAGCGCUAAGGGGGCCUGGGAGUUUGGACUGGGCAGAGCUCAACACAGCGUGGCAAAGUGGCUGUGGCUAGACUGCCUCUCUGGAUUCCUCGUCACUCAGCAGGGCGUCUCUGAGAGAAAUGCC, the self-cleavage was 0.57.
For UACGUAGGUGGUUUUCCCCUGAUAGUGCUAAGGGGGCCUGGAGGUUUGGACUGGGCAGAGCUCAACACAGCGUGGCAAAGUGGCUGUGGCUAGACAGCCUCUCUGGAUUCCUCGUCACUCAGCAGGCCAUCUCUGAGAGAAAUGCC, the self-cleavage is 0.07.
To UACGUAGGUGGUUUUCCCCUGAUAGUGCUAAAGGGGCCUGGAAGUUCGGACUGGGCAGAGCUCAACACAGCGUGGCAAAGUGGCUGUGGCUAGACUGCCUCUCCGGAUUCCUCGACACUCAGCAGGGCAUCUCUGAGAGAAAUGCC belongs 0.92; to UACGUAGGUGGUUUUCCCCGGAUAGUGCUAAGGGGGCCUGGAAGUUUAGACUGGGCAGAGCUCAACACAGCGUGGCAAAGUGGCUGUGGCUAGACUGCCUCUCUGGAUUCCUCGUCACUCGGCAGGGCAUCCCUGAGAGAAAUGCC, 1.98; to UACGUAGGUGGUUUACCCCUGAUAGUGCUAAGGGGGCCUGGAAGUUUGGACUGGGCAGAGCUCAACACAGCGUGGCUAAGCGGCUGUGGCUAGACUGCCUCUCUGGAUUCCUCGUCACUCAGCAGGGCAUCUCUGAGAGAAAUGCC, 1.09.
As for UACGUAGGUGGUUUUCCCCUGAUAGUGCUAUGGAGGCCUGGAAGUUUGGACUGGGCAGAGCUCAACACAGCGUGGCAAAGUGGCUGUGGCUAGACUGCCUCUCUGGAUUCCUCGUCACUCAGCAGGGCAUCUCUGGGAGAAAUGCC, the self-cleavage was found to be 1.26.
With UACGUAGGUGGUUUUCCCCUGAUAGUGCUAAGGGGGCCUGGAAGUUUGGACUGGGCAGAGCUCAGCACAGCGUGGCAAAGUGGCUGUGGCUAGACAGCCUCUCUGGAUUCCUCGUCACUCAGCAGGGCAUCUCUGAGAGUAAUGCC, the self-cleavage was determined as 0.08.
To UACGUAGGUGGUUUUCCCCCGAUAGUGAUAAGGGGGCCUGGAAGUUUGGACUGGGCAGAGCUCAACACAGCGCGGCAAAGUGGCUGUGGCUAGACUGCCUCUCUGGAUUCCCCGUCACUCAGCAGGGCAUCUCUGUGAGAAAUGCC belongs 0.53.
Consider UACGUAGGUGGUUUCCCCCUGAAAGUGCUAAGGGGGCCUGGAAGUUUGGACUGGGCAGAGCUCAACACAGCGGGGCAAAGAGGCUGUGGCUAGACUGCCUCUCUGGAUUCCUCGUCACUCAGCAGGGCAUCUCUGAGAGGAAUGCC, for which the self-cleavage stood at 2.37.
Take UACGUAGGUGGUUUUCCCCUGAUAGUGCUAAGGGGGCCUGGAAGUUUGGACUGGGCAGAGCUCAACACUGCGUGGCAAAGUGGCUGUGGCUAGACUGCCUCUCUGGAUUCCUCGUCACUCAGCAGGGCAUCACUGAGAGAAAAGCC: the self-cleavage worked out at 0.07.
Regarding UACGUAGGUGGUUUUCCCCUGAUAGUGCUAAGGGGGCCUGGAAGUUCGGACUGGGCAGAGCUCAGCACAGCGUGGCAAAGUGGCUGUGGCUAGACUGCCUCUCUGGAUUCCUCGUCACUCAGCAGGGCAUCUCUGAGAGAAGUGCC, the self-cleavage stood at 0.13.
Consider UACGUAGGAGGUCUUCCCCUGAUAGUGCUAAGGGGGCCUGGGAGUUUGGACUGGGCAGAGCUCAACACAGCGUGGCAAAGUGGCUGUGGCUAGACUGCCUCUCUGGAUUCCUCGUCACUCAGCAGGGCAUCUCUGAGAGAGAUGCC, for which the self-cleavage came out at 0.84.
For UACGUAGGUGGUUGUCCCCUGAUAGUGCUAAGGGGGCCUGGAAGUUUGGACUGGGCAGAGCUCAACACAGCGUGGCAAAGUGGCUGCGGCUAGACUGCCUUUCUGGAUUCCUCGUCACUCAGCAGGGCAUCUCUGAGAGAAAUGCC, the self-cleavage came out at 0.57.
The same measure for UACGUAGGUGGUUUUCCCCUGAUAGUGCUAAGGGGGCCUGGAAGUUUGGACUGGGCGGAGCUCAACACAGCGAGGCAAAGUGGCUGUGGCUAGACUGCCCCUCUGGAUUCCUCGUCACCCAGCAGGGCAUCUCUGAGAGAAAUGCC: 2.83.
On to UACGUAGGUGGUUUUCCCCUGAUAGUGCUAAGGGGGCCUGGAAGUUUGGACUGGGCAGAGAUCAACACAGCGUGGCAAAGUGGCUGUGGCUGGACUGCCUCUCUGGAUUCCUCGUCACUCAGCAGGGCACCUCUGAGAGAAAUGCC, for which the self-cleavage was 0.07.
To UACGUAGGUGGUUUUCCCCUGAUAGUGCUAAGGUGGCCUGGAGGUUUGGACUGGGCAGAGCUCAACACAGCGUGGCAAAGUGGCUGUGGCUAGACUGCCUCUCUGGAUCCCUCGUCACUCAGCAGGGCAUCUCUGAGAGAAAUGCC belongs 1.66; to UACGUAGGUGGUUUUCCCCUGAUAGUGCUAAAGGGGCCUGGAAGUUUGGAAUGGGCAGAGCUCAACACAGCGUGGCAAAGUGGCUGUGGCUAGACCGCCUCUCUGGAUUCCUCGUCACUCAGCAGGGCAUCUCUGAGAGAAAUGCC, 0.17.
For the variant UACGUAGGUGGCUUUCCCCUGAUAGUGCUAAGGGGGCCUGGAAUUUUGGACUGGGCAGAGCUCAACACAGCGAGGCAAAGUGGCUGUGGCUAGACUGCCUCUCUGGAUUCCUCGUCACUCAGCAGGGCAUCCCUGAGAGGAAUGCC, the self-cleavage worked out at 2.14.
On to UACAUAGGUGGUUUUCCCCUGAUAGUGCUAAGGGGGCCUGGAAGUUUGGACUGGGCAGGGCUCAACACAGCGUGGCAAAGUGGCUGUGGCUAGACUGCCUCUCUGGAUUCCUCAUCACUCAGCAGGGCAUCUCUGUGAGAAAUGCC, for which the self-cleavage is 0.2.
For the variant UACGUAGGUGGUUCUCCCCUGAUAGUGCUAAGGGGGACUGGAAGUUUGGACUGGGCAGAGCUCAACACAGCGAGGCAAAGUGGCUGUGGCUAGACUGCCUCUCUGGAUUCCUCGUCACUCAGCAGGGCAUCUCUGGGAGAAAUGCC, the self-cleavage is 1.65.
In the case of UACGUAGGUGGUUUUCCCCUGAUAGUGCUAGGGGGGCCCGGAAGUCUGGACUGGGCAGAGCUCAACACAGCGUGGCAAAGUGGCUGUGGCUAGACUGCCUCUCUGGAUUCCUCGUCACUCAGCUGGGCAUCUCUGAGAGAAAUGCC, the self-cleavage was determined as 1.84.
In the case of UACGUAGGUGGUUUUCCCCUGAUAAUGCUAAGGGGGCCUGGAAGUUUGGACUGGGCUGAGCUCAACACAGCGUGGCAAAGUGGCUGUGGCUAGACUGCCUCUCUGGAUUCCUCGUCGCUCAGCAGGGCAUCUCUGAGAGAAAAGCC, the self-cleavage worked out at 0.14.
Take UACGUAGGUGGUUUUCCCCUGAUAGUGCUAAGGUGGCCCGGAAGCUUGGACUGAGCAGAGCUCAACACAGCGUGGCAAAGUGGCUGUGGCUAGACCGCCUCUCUGGAUUCCUCGUCACUCAGCGGGGCAUCUCUGAGAGAAAUGCC: the self-cleavage is 0.
To UACGUAGGUGGUUUUACCCUGAUAGUGCUAAGGGGGCCUGGGAGUUUGGACUGGGCAGAGCUCAACACAGCGUGGCAAAGCGGCUGUGGCUAGACUGCCUCUCUGGAUUCCUCGUCACUCAGCAGGGCAUCCCUGAGAGAAGUGCC belongs 0; to UACGUAGGUGGUUUUCCCCUGAUAGUGCUAAGGGGGCCUGGAAGUUCGGACUGGGCAGAGCUCAACGCAGCAUGGCUAAGUGGCUGUUGCUAGACUGCCUCUCUGGAUUCCUCGUCACUCAGCAGGGCAUCUCUGAGAGAAAUGCC, 0.02.
